Reference: ChEMBL document CHEMBL4888484, “Replenishing the malaria drug discovery pipeline: Screening and hit evaluation of the MMV Hit Generation Library 1 (HGL1) against asexual blood stage Plasmodium falciparum ,using a nano luciferase reporter read-out” (2022)
The campaign covered roughly 4,800 compounds. About 410 (8.5%) showed an effect of 50% or more. Some of the results follow.

Test system: Plasmodium falciparum
Test: Confirmatory screen in NF54 pLDH assay, in single point, at 2uM, 72h
Format: functional, Erythrocyte
Conditions: timepoint 72 hour

Compound | % Inhibition [%]
Cc1ccc(-c2cc3c(N4CCCN(C)CC4)nccn3n2)c(C)c1 | 14
COc1ccc(S(=O)(=O)N2CCN(Cc3noc(CCC(=O)N(C)Cc4ccccc4)n3)CC2)cc1 | -3
CN(Cc1ccccc1)C(=O)C1CC=CCC1C(=O)Nc1ncc(-c2ccc3c(c2)OCO3)n1C (centres undefined) | 6
O=C(NCCN1CCCC1)c1ccc2nc(-c3ccc(Cl)cc3)cn2c1 | 70
CCNC(=O)C(=O)NCc1ccc(Cl)cc1 | 12
NC(=O)c1ccccc1NC(=O)C1CCN(c2cc(C3CC3)ncn2)CC1 | 2
CNC(=O)c1cc(NS(=O)(=O)N2CCCCCC2)ccc1F | -8
CCN1CCN(c2cccc(NC(=O)c3cc(F)cc4c(=O)c5cc(F)ccc5[nH]c34)c2)CC1 | 96
COc1ccccc1C(=O)NC1=C(C)Nc2ncnn2[C@H]1c1c[nH]c2ccccc12 | -5
Cc1noc([C@H](C)S(=O)(=O)Cc2cc(C)on2)n1 | 9
CN(CCCNC(=O)Cc1n[nH]c(=O)c2ccccc12)Cc1ccccc1 | 9
CCS(=O)(=O)c1cccc(N[C@@H](C)COC)c1 | 1
CC1CCC2(CC1)N=C(c1ccccc1)C(=O)N2CC(=O)N[C@H]1CCc2ccccc21 (some centres undefined) | -4
C[C@@H]1NC(=O)N(C2CCCN(Cc3cccc(C(F)(F)F)c3)C2=O)C1=O (some centres undefined) | -11
C[C@@H]1Oc2ccc(-c3csc(NC(=O)c4ccccc4Cl)n3)cc2N(C)C1=O | 12
C[C@H](NC(=O)c1cc(F)cc(F)c1)c1ccccc1NC(=O)c1cc(F)cc(F)c1 | 1
O=C(CN1CCCCC1=O)NCCc1c[nH]c2ccccc12 | -15
Cn1n[n+](CCCCC(Cl)(Cl)Cl)c2ccccc21 | 52
CN(C)/C=C/c1cc(C#N)c(C#N)cc1Br | 6
c1cc(-c2nc3cc4ccccc4cc3[nH]2)nc(-c2nc3cc4ccccc4cc3[nH]2)c1 | 97
COc1cccc(CCc2ccccc2OC[C@H](CN(C)C)OC(=O)CCC(=O)O)c1 | -5
COc1cc(C(c2c(C)n(C)n(-c3ccccc3)c2=O)c2c(C)n(C)n(-c3ccccc3)c2=O)c(Br)c(Br)c1OCc1ccccc1 | 5
Cc1nn(-c2ncc(C(F)(F)F)cc2Cl)c(=O)n1-c1ccc(OCc2ccccc2)cc1 | -12
COc1nc(NC[C@H]2CCCN2C(C)C)ncc1F | 83
CCn1nccc1C(=O)NC1CCN(c2nnc3ccccn23)CC1 | -7

Compound | % Inhibition [%]
CCCN(CCO)C(=O)Nc1ccn(Cc2cn3ccccc3n2)n1 | 5
O=C(NC1CCS(=O)(=O)C1)C1CC=CCC1 (centres undefined) | 0
N#CC1CCC(Nc2cnn(-c3ccncc3)c2)CC1 (centres undefined) | 11
COCCN1CC2(CCCC2)N(C(=O)COc2ccc(F)cc2)CC1=O | -9
Cc1ccc(N(Cc2cccs2)C(=O)c2cccs2)cc1Cl | 31
O=C(c1ccccc1)c1c[nH]c2c(F)cc(F)cc2c1=O | 2
Cc1cccc(C)c1NC(=O)C1(N(Cc2ccco2)C(=O)c2ccc(Cl)cc2)CCC(C)CC1 (centres undefined) | 9
C[C@H](NC(=O)c1ccsc1)c1cccs1 | 2
Cc1ccc(C)c(C(=O)CN2Cc3ccccc3C2=N)c1 | 12
Cc1c(C(C)C)c(=O)n(-c2ccc(S(=O)(=O)N3CCN(c4nc5ccccc5nc4-c4ccccc4)CC3)cc2)n1C | -10
Cc1cc(C)n(C(=O)CNC(=O)c2cccs2)n1 | -25
Cc1ccccc1Cn1cnc2c1c(=O)n(C1CCCCC1)c(=O)n2-c1ccccc1Cl | 82
c1ccc(N2CCN(c3nc(N4CCCC4)c4nccnc4n3)CC2)cc1 | -1
COc1c[nH]c(C(=O)NC2CCN(Cc3ccccc3)CC2)cc1=O | 1
O=C(CCC(=O)c1ccccc1)NC1CCC(O)CC1 (centres undefined) | 10
CCOc1c(CNCCN(C)C)cc(Br)cc1OC | 3
Cc1onc(-c2ccccc2)c1C(=O)c1c[nH]c(C(=O)NCc2ccncc2)c1 | 11
Cc1cc(N2C(=O)CCS2(=O)=O)cc(C)c1S(=O)(=O)NCc1ccccn1 | 9
CCOC(=O)c1ccc(N2CCN(Cc3ccccc3)CC2)c(NC(=O)COc2ccc(Cl)cc2C)c1 | -9
NCc1cccc(C(=O)N2CCc3cc4ccc3[C@@H]2c2cccc(c2)OCCCNC(=O)c2cc(ccc2O)O4)c1 | 98
CNC(=O)COc1c(Cl)ccc(Cl)c1Br | 8
O=C(NC1(C(F)(F)F)Oc2cc(Cl)c(Cl)cc2O1)N1CCCC1 | -6
Cc1nc[nH]c1CN1CCN(C(=O)CCC(C)C)[C@H]2CS(=O)(=O)C[C@H]21 | 4
C[C@]1(CCc2ccc(O)cc2)Nc2ccccc2-c2nc(=O)c(-c3ccc(F)cc3)nn21 | -12
Cc1ccc(C)c(C(=O)Cn2nc3ccc(-c4ccc(Cl)cc4)nn3c2=O)c1 | 6

Compound | % Inhibition [%]
Cc1oc(C(=O)N2CC3(CCCC3)c3ccccc32)cc1S(=O)(=O)N(C)C | -1
Cn1c(-c2ccc(-c3ccccc3)cc2)cn2cc(-c3cccc(Br)c3)nc12 | 10
Cc1ccnc2nc(C(=O)N(C)c3ccc(Cl)cn3)nn12 | 13
CCN(C[C@H]1CCCO1)C(=O)c1cnc(Cc2ccccc2)s1 | -15
O=C(Nc1ccccc1CN1CCc2ccccc21)NC1CCC(O)CC1 (centres undefined) | -8
CCN(CCN(C)C)C(=O)c1cccc(-c2ccc3nccc(N)c3c2)c1 | 96
CC(C)c1cnc(NCCCC[C@H]2CCCO2)nc1 | -14
CCn1cnc2c(N3CCC[C@H](c4ccncc4)C3)ncnc21 | 77
CCOC(=O)C1CCN(C(=O)c2nc(-c3ccc(N4CCCC4)nc3)no2)CC1 | 12
COc1ccc(-c2noc(Cn3c(=O)c4ccccc4n(CC(=O)NCCc4ccc(OC)c(OC)c4)c3=O)n2)cc1 | 6
COC1C(C(N)=O)OC2OC3(CCCCC3)OC21 (centres undefined) | -4
COc1cc(C(=O)Nc2ccc3sc(NC(=O)c4cc(OC)c(OC)c(OC)c4)nc3n2)cc(OC)c1OC | 67
O=C(Cn1c(=O)n(Cc2nc(-c3ccccc3)no2)c(=O)c2ccccc21)Nc1cccc(Cl)c1 | 5
CC(CNc1ccccn1)N1CCOCC1C (centres undefined) | 0
O=C(NCc1ncc[nH]1)[C@@H]1COc2ccc(Br)cc21 | 11
COc1ccc(CNC(=O)N2C[C@H](C)OC3(CCCCC3)C2)cc1OC(F)F | -8
CC(C(=O)N1N=CCC1(O)C(F)(F)F)n1nc(C(F)(F)F)cc1C1CC1 (centres undefined) | 7
O=S(=O)(c1ccccc1F)C1CNC1 | -18
O=C(Nc1cccc(Oc2c(F)c(F)c(-c3c(F)c(F)c(Oc4cccc(NC(=O)c5ccccc5)c4)c(F)c3F)c(F)c2F)c1)c1ccccc1 | 15
CCn1ccc(C(=O)NC2CCN(c3nnc4ccc(Cl)cn34)CC2)n1 | 1
Cc1cc(NS(=O)(=O)c2cccs2)n(-c2ccncc2)n1 | 9
CCC(=O)Nc1nc(-c2ccccc2)nc2c1C(=O)CCC2 | 11
CC(C)(C)c1ccc(C(=O)N[C@H]2CCCC[C@@H]2NC(=O)c2ccc(C(C)(C)C)cc2)cc1 | 2
CCN1CCN(CC(=O)N2N=C(c3ccc(C)c(C)c3)C[C@H]2c2cccn2C)CC1 | 2
Cc1cc(Oc2ncccn2)ccc1NC(=O)N1CCOCC1 | 13

Compound | % Inhibition [%]
Oc1ccc2cc(CN3CCC[C@H](CN4CCCC4)C3)ccc2c1 | 97
O=C(Nc1cccc2cccnc12)c1cncc(Br)c1 | -8
Cc1ccc(NC(=O)CN2N=C(C(=O)Nc3ccc(F)cc3)CCC2=O)cc1F | -1
Brc1cccc2c1OCC[C@@H]2Nc1ncnc2nc[nH]c12 | 4
COc1ccc(-c2nn(CN(C)OC)c(=S)o2)cc1OC | -17
CN1c2cc(C(=O)N3CCc4ccccc4C3)ccc2C(=O)N2CCCC[C@H]21 | -1
COc1ccccc1C(=O)N1CCC([C@H](NC(=O)c2ccc3c(c2)OCO3)C(=O)NC(C)C)CC1 | 10
CN(c1ccc(Br)cc1)S(=O)(=O)c1ccc2c(c1)CCN2C(=O)C1CCC1 | 10
CNC(=O)Cc1noc(-c2sccc2C#N)n1 | -8
Cc1ncsc1CNS(=O)(=O)c1ccc(OCC(F)F)cc1 | 7
C#CCN(C(=O)c1cnn(CC(C)C)c1C(F)F)c1nccs1 | -12
Cc1cccc(S(=O)(=O)Nc2ccc3nc(NC(=O)c4ccccc4)sc3c2)c1 | 7
Cc1cc(NC(=O)c2ccn(-c3nc(-c4cnn(C)c4)cc(C(F)(F)F)n3)n2)no1 | 11
C[C@H]1CCN(c2nc(-c3ccccn3)nc3c2CCC3)C1 | 93
O=C(c1cccs1)N1CCN(C2CCCCC2)CC1 | -22
O=C(Nc1ccc(N2CCCCCC2)cc1C(=O)O)c1ccc(Cl)cc1 | 9
Cc1nc(N2CCOCC2)nc2c1CCCC2 | 6
CN(C)c1ccc(-c2nc3[nH]cnn3c2Nc2ccccc2)cc1 | 10
C[C@H](NCCc1ccccc1)c1cccc(COc2nn3c(C(F)(F)F)nnc3c3ccccc23)n1 | 7
Cc1cnc(CNC(=O)Nc2nnc3ccccn23)s1 | 2
Cc1nc2c(sc(=S)n2-c2ccc(Cl)c(Cl)c2)c(=O)[nH]1 | 2
N#CCCN(C(=O)COC(=O)c1ccc(S(=O)(=O)N2CCOCC2)cc1)c1ccccc1 | 11
CCc1cccc(NC(=O)C2CCN(c3c(C)n(-c4ccccc4)c(=O)n(CC(C)C)c3=O)CC2)c1 | 5
Cn1c(-c2ccc(Cl)c(Cl)c2)c[n+](CC(=O)c2ccc(F)cc2)c1N | -12
